Reference: US7507412B2, “Glycoprotein VI fusion proteins” (Merck Patent GmbH, priority 2001, dated 2009)

Biological target: collagen type III (coated on microtiter plates)
Experiment: ELISA saturation curve, collagen type III coated plates

B1: GPVI-Fc fusion protein (as encoded in KL74A) (Fc fusion)
chain: LAFKLKLQSGPLPKPSLQALPSSLVPLEKPVTLRCQGPPGVDLYRLEKLSSSRYQDQAVLFIPAMKRSLAGRYRCSYQNGSLWSLPSDQLELVATGVFAKPSLSAQPGPAVSSGGDVTLQCQTRYGFDQFALYKEGDPAPYKNPERWYRASFPIITVTAAHSGTYRCYSFSSRDPYLWSAPSDPLELVVTGTSVTPSRLPTEPPSSVAEFSEATAELTVSFTNKVFTTETSRSITTSPKESDSPAGPARQYYTKGNCGR[human IgG1 Fc with changes omitted here]
- concentration at which collagen-binding sites are completely occupied: > 100 nM
